The source of these data is patent US8961970B2, “Combination therapy” (Novartis AG, priority 2012, dated 2015).

One assay has as its system AsPC-1 cells. Put plainly: Cell proliferation / viability assay (CellTiter-Glo, dose matrix) in AsPC-1 cells. Format: cell-based. As to conditions: AsPC-1, KRAS mutant pancreatic cancer cell line; 120 hours incubation; presence and absence of IGF1 (100 ng/ml). The protocol:
(§1) A cell proliferation assay was performed to investigate the activity of the combination of COMPOUND A and ANTIBODY A on Insulin-like Growth Factor 1 (IGF1)-induced proliferation of the KRAS mutant cell lines Miapaca-2 and AsPC-1. To evaluate the combination effect in a non-biased way, and to identify synergistic effects at different concentrations, the study was conducted using a “dose matrix” scheme (described in detail below).
(§2) COMPOUND A (10 mM) was stored in aliquots at −20° C. ANTIBODY A (0.2 mM in 1% BSA) was stored in aliquots at 4° C. Insulin-like Growth Factor-1 (IGF1; R&D System, Cat #291-G1) was reconstituted at 100 ug/mL in sterile Phosphate Buffered Saline (PBS).
(§3) The KRAS mutant, pancreatic cancer cell lines Miapaca-2 and AsPC-1 were cultured in DMEM medium (ATCC Cat #30-2002) and RPMI-1640 (ATCC Cat #30-2001) plus 10% Fetal Bovine Serum (FBS; Invitrogen Cat #10099-141) as recommended by the supplier. Cells were cultured in T-150 flasks using standard cell culture techniques and split upon reaching 80% confluency. TryPLE Express (Invitrogen #12604-013, no phenal red) was used for all cell dissociation. Cell count and viability were measured using Trypan dye exclusion with a ViCell counter (Beckman-Coulture). Cells were determined to be free of Mycoplasma using a PCR detection method (www.radil.missouri.edu). […]
(In general: Cellular ATP, detected with luciferase, serves as a proxy for viable cell number.)

The next assay relates to Miapaca-2 cells. Put plainly: Cell proliferation / viability assay (CellTiter-Glo, dose matrix) in Miapaca-2 cells. Format: cell-based. To be noted: Miapaca-2, KRAS mutant pancreatic cancer cell line; 120 hours incubation; presence and absence of IGF1 (100 ng/ml). The protocol:
as §1, §2, §3

B1: ANTIBODY A: IGF1R inhibitory antibody with heavy chain SEQ ID NO:1 and light chain SEQ ID NO:2, disclosed in U.S. Pat. No. 7,871,611 (antibody)
heavy: QVQLQESGPGLVKPSGTLSLTCAVSGGSISSSNWWSWVRQPPGKGLEWIGEIYHSGSTNYNPSLKSRVTISVDKSKNQFSLKLSSVTAADTAVYYCARWTGRTDAFDIWGQGTMVTVSS[sequence of human IgG1 constant region omitted]
light: [sequence of about 100 residues omitted]THWPLTFGQGTKVEIKRTVAAPSVFIFPPSDEQLKSGTASVVCLLNNFYPREAKVQWKVDNALQSGNSQESVTEQDSKDSTYSLSSTLTLSKADYEKHKVYACEVTHQGLSSPVTKSFNRGEC
modifications: Synthetic antibody A heavy chain; Synthetic antibody A light chain
As to B1, the “single agent anti-proliferative activity” value in the assay on AsPC-1 cells and in the assay with Miapaca-2 cells was “almost totally inactive” in each case.
